Results published in US20200268852A1, “HEMATOPOIETIC RECOVERY FROM RADIATION INJURY” (priority 2013, published 2020).

Experiments:
C57BL/6 mice [1] = experiment: Thymic regeneration in untreated (steady-state) young and aged mice; settings: young male mice; for mTEChi (MHC class II high medullary thymic epithelial cells) number: day 7 and 14; for thymic cellularity / thymic size: early time points (day 7 and 14) after treatment
C57BL/6 mice [2] = experiment: Lymphoid reconstitution, treatment 24 h after SL-TBI; settings: spleen after SL-TBI
Protocol: FIGS. 5A-F show SSI administration after SL-TBI enhanced thymic regeneration and peripheral reconstitution. […] Thymi and spleens were analyzed at different time points. FIG. 5A, Absolute number of thymic cellularity and developing thymocytes 7 and 42 days after irradiation. FIG. 5B, Absolute number of thymic stromal cells. FIG. 5C, Total splenocytes and B cells were analyzed at 7, 24 and 48 days after SL-TBI. FIG. 5D, Absolute number of CD4^+ and CD4^+N T cells. FIG. 5E, Absolute number of CD8^+ and CD8^+N T cells. FIG. 5F, Absolute number of fibroblast, and endothelial cells.
We investigated the effects on lymphoid reconstitution when Degarelix was administered 24 h after exposure of SL-TBI. We irradiated B6 male mice and injected them 24 h hours later with vehicle or Degarelix.
We then investigated the effect of post-SL-TBI LHRH-Ant treatment in the peripheral reconstitution. Seven days after SL-TBI splenic cellularity was severity depleted in all groups.
(1 mg/mouse) in 100 ul. […] (BD Biosciences) or FLOWJO (Treestar Software).

[3] = test system: C57BL/6 allo-HSCT recipients; experiment: Thymic and peripheral reconstitution after allo-HSCT
Excerpt: We, and others, have previously shown that SSA using LHRH-Ag promotes recovery from autologous and allo-HSCT (Goldberg et al., 2007; Sutherland et al., 2008). We therefore investigated the effects of LHRH-Ant pretreatment on male C57BL/6 allo-HSCT recipients on thymic and peripheral reconstitution.
Of note, the most abundant populations among these peripheral T cells subsets were naïve T cells, indicating a robust thymopoiesis in LHRH-Ant treated mice compared to controls. Many strategies for boosting immune reconstitution could also undesirably increase the risks of graft-versus-host disease (GVHD) in allo-HSCT recipients. We therefore evaluated the impact of LHRH-Ant treatment using an established murine GVHD model. […] LHRH-Ant treatment therefore enhances thymic output and peripheral T cell function without exacerbating post-transplant complications.

Compound	mTEChi (MHC class II high medullary thymic epithelial cells) number (C57BL/6 mice [1])	thymic cellularity / thymic size (C57BL/6 mice [1])	total numbers of CD4+ and CD8+ T cells and subsets (C57BL/6 mice [2])	number of peripheral CD4+ and CD8+ T cell subsets ([3]; 3 months after transplant)	thymic cellularity ([3]; day 42, sustained for at least 3 months after transplant)
CCNC(=O)[C@@H]1CCCN1C(=O)[C@H](CCCNC(=N)N)NC(=O)[C@H](CC(C)C)NC(=O)[C@@H](CC(C)C)NC(=O)[C@H](Cc1ccc(O)cc1)NC(=O)[C@H](CO)NC(=O)[C@H](Cc1c[nH]c2ccccc12)NC(=O)[C@H](Cc1c[nH]cn1)NC(=O)[C@@H]1CCC(=O)N1 [Lupron, leuprolide]	initial decrease	dramatic degenerative effect			
CC(=O)N[C@H](Cc1ccc2ccccc2c1)C(=O)N[C@H](Cc1ccc(Cl)cc1)C(=O)N[C@H](Cc1cccnc1)C(=O)N[C@@H](CO)C(=O)N[C@@H](Cc1ccc(NC(=O)[C@@H]2CC(=O)NC(=O)N2)cc1)C(=O)N[C@H](Cc1ccc(NC(N)=O)cc1)C(=O)N[C@@H](CC(C)C)C(=O)N[C@@H](CCCCNC(C)C)C(=O)N1CCC[C@H]1C(=O)N[C@H](C)C(N)=O [Degarelix] (Ac-[d2Nal][dPhe(4-Cl)][d3Pal]S[Phe(4-NH2)](Dihydroorotyl(S))[dPhe(4-NHCONH2)]L[Lys(iPr)]P[dA]-NH2)	profound expansion	rapid increase in thymic size	consistent increasing trend	significant increase	significantly increased

Square brackets hold non-standard residues; d marks the D form. Peptide text beside a SMILES is read from it. * marks the point of attachment. dPhe(4-NHCONH2) = NC(=O)Nc1ccc(C[C@@H](N)C(=O)O)cc1; Dihydroorotyl(S) = O=C1C[C@@H](C(=O)*)NC(=O)N1; dPhe(4-Cl) = N[C@H](Cc1ccc(Cl)cc1)C(=O)O; Phe(4-NH2) = Nc1ccc(C[C@H](N)C(=O)O)cc1; d2Nal = N[C@H](Cc1ccc2ccccc2c1)C(=O)O; Lys(iPr) = CC(C)NCCCC[C@H](N)C(=O)O; d3Pal = N[C@H](Cc1cccnc1)C(=O)O
